{"source": "PubChem BioAssay AID2100", "about": "(National Center for Advancing Translational Sciences (NCATS), 2009)", "note": "The campaign covered roughly 300,000 compounds. About 1,200 (0.4%) were called active. Inconclusive results, whose numbers are uncertain, are shown with a selection of clear calls. Calls follow the shape of the dose curve; as a rule, active = well fitted inhibition curve with a large enough effect; inconclusive = small, poorly fitted or top-dose-only effect, or another doubt; inactive = no such curve, though single readings can be large or run the other way. A potency beside an inconclusive call is a rough fit, not a confirmed value. Potency is read from the fitted curve at half-maximal effect."}
{"molecular_target": "Lysosomal alpha-glucosidase (Homo sapiens) (UniProt P10253)", "experiment": "qHTS Assay for Inhibitors and Activators of Human alpha-Glucosidase Cleavage of Glycogen;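 as to activity change, negative = inhibition: 0% = full enzyme reaction and -100% = no-enzyme basal signal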", "settings": "recombinant GAA, glycogen substrate, Amplex Red glucose oxidase fluorescence; activity change, negative = inhibition: at 76.4 µM (top of the series) unless noted", "how_it_was_run": "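qHTS, 1536-well; enzyme 4 nM final; cpd up to 77 uM; substrate bovine liver glycogen 30 ug; 50 mM citrate/phosphate pH 5.0, 0.01% Tween-20; 37 C, 40 min; Amplex Red detection 45 min RT; Hill fit → AC50.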"}
{"smiles": "COCCNC(=S)N/N=C(\\C)c1ccc(C)c([N+](=O)[O-])c1", "Potency": "inconclusive: 7.03 µM [inhibitor, full curve, poor fit]"}
{"smiles": "Cc1cc(C)n(Cc2nc3ccccc3n2C)n1", "Potency": "inconclusive: 44.3 µM [inhibitor, single point]"}
{"smiles": "COc1cccc(/C=N/NC(=O)NC2CCCCC2)c1O", "Potency": "inconclusive: 17.8 µM [inhibitor, partial curve]"}
{"smiles": "CCOc1ccc(N2C(=O)CSC2=S)cc1", "Potency": "inconclusive: 7.08 µM [inhibitor, single point]"}
{"smiles": "COc1ccc(C(=O)NC2=Nc3ccccc3N=C(C)C2c2ccccc2)cc1", "note": "(configuration not stated)", "Potency": "inconclusive: 14.1 µM [inhibitor, partial curve]"}
{"smiles": "CCOc1ccc(-c2nc(C#N)c(NCC3CCCO3)o2)cc1", "note": "(configuration not stated)", "Potency": "inconclusive: 35.5 µM [inhibitor, partial curve]"}
{"smiles": "O=C1C(CSCc2ccccc2)NC(=S)N1c1ccccc1", "note": "(configuration not stated)", "Potency": "inconclusive: 31.6 µM [inhibitor, single point]"}
{"smiles": "CCOC(=O)c1c(/N=C/C2C(=O)CCCC2=O)sc(C)c1C", "Potency": "inconclusive: 28.2 µM [inhibitor, partial curve]"}
{"smiles": "Cc1[nH]c2ccc(C(C)C)cc2c1CC(=O)O", "Potency": "inconclusive: 28.2 µM [inhibitor, single point]"}
{"smiles": "CC(=O)c1c(N2CCOCC2)[nH]c(-c2ccccc2)nc1=S", "Potency": "inconclusive: 3.95 µM [inhibitor, single point]"}
{"smiles": "O=C(c1cccnc1)n1nc(NCc2ccccc2)nc1NCc1ccccc1", "Potency": "inconclusive: 28 µM [inhibitor, single point]"}
{"smiles": "CCCSc1ccccc1C(=O)N1CCN(C(=O)c2ccco2)CC1", "Potency": "inactive"}
{"smiles": "COCCCNC(=O)c1cn(-c2cccc(OC)c2)c(=O)c2ccccc12", "Potency": "inactive"}
{"smiles": "N#CC1=CN(Cc2ccccc2)C=C(/C=N/Nc2ccccc2)C1", "Potency": "inconclusive: 50.1 µM [inhibitor, single point]"}
{"smiles": "Cc1ccc2c(c1)c1c(n2C)-c2[nH]ncc2CC1", "Potency": "inconclusive: 50.1 µM [inhibitor, single point]"}
{"smiles": "CCN(CCNC(=O)c1cccc(N2CCCC2=O)c1)c1ccccc1", "Potency": "inconclusive: 25.1 µM [activator, single point]"}
{"smiles": "S=C(Nc1ccc2c(c1)OCO2)Nc1ccc2c(c1)OCO2", "Potency": "inconclusive: 12.6 µM [inhibitor, partial curve]"}
{"smiles": "Cc1cc(Nc2ccccc2)n(C(=O)c2ccc(N)cc2)n1", "Potency": "inactive"}
{"smiles": "CC(C)(C)OC(=O)NNc1c2ccccc2nc2ccccc12", "Potency": "inconclusive: 3.16 µM [inhibitor, partial curve]"}
{"smiles": "CCC(C)C(=O)Nc1nc(C)c(-c2csc(Nc3ccccc3OC)n2)s1", "note": "(configuration not stated)", "Potency": "inconclusive: 22.2 µM [inhibitor, partial curve]"}
{"smiles": "Cc1cc(C)c2c(n1)nn1c(C)c(CCC(=O)Nc3ccc(C)c(Cl)c3)c(C)nc21", "Potency": "inconclusive: 50.1 µM [inhibitor, single point]"}
{"smiles": "O=C(Oc1ccccc1O)c1cccc2ccccc12", "Potency": "inconclusive: 28.2 µM [inhibitor, single point]"}
{"smiles": "NC(=S)N/N=C1/CCSc2ccc3ccccc3c21", "Potency": "active: 28.2 µM"}
{"smiles": "Cc1ccc(S(N)(=O)=O)c(C)c1-n1cnnn1", "Potency": "inconclusive: 5.62 µM [inhibitor, full curve, poor fit]"}
{"smiles": "Fc1ccccc1/C=N/Nc1ncnc2ccccc12", "Potency": "inconclusive: 28.2 µM [inhibitor, partial curve]"}
{"smiles": "O=C(CC1Nc2c3ccccc3nc(=S)n2C1=O)NC1CCCCC1", "note": "(configuration not stated)", "Potency": "inconclusive: 11.2 µM [inhibitor, partial curve]"}
{"smiles": "CCOC(=O)c1cnn2c(N)c(C#N)nnc12", "activity change, negative = inhibition": "inconclusive: 30.8% [activator]"}
{"smiles": "Cc1ccc(C(=O)N/N=C\\c2ccc([N+](=O)[O-])o2)cn1", "Potency": "inconclusive: 50.1 µM [inhibitor, single point]"}
{"smiles": "O=C1OC(c2ccccc2)=C/C1=C\\N1CCOCC1", "Potency": "inactive"}
{"smiles": "O=C(NNS(=O)(=O)c1ccc(Cl)cc1)c1cc(-c2ccccc2)n[nH]1", "Potency": "inconclusive: 50.1 µM [inhibitor, partial curve]"}
{"smiles": "CC1CCCC/C1=N\\NC(=S)NCCc1ccccc1", "note": "(configuration not stated)", "Potency": "inconclusive: 19.8 µM [inhibitor, partial curve]"}
{"smiles": "FC(F)(F)c1cccc(-n2cccc2/C=N/n2cnnc2)c1", "Potency": "inactive"}
{"smiles": "CCc1ccccc1NC(=O)Cn1nc(-c2cc(C)ccc2C)c2c(c1=O)CCCC2", "Potency": "inactive"}
{"smiles": "CCOc1ccc(NC(=O)CSc2nnc3c(C)cc4ccccc4n23)cc1", "Potency": "inactive"}
{"smiles": "O=S(=O)(c1ccc(OCC(O)CN2CCN(c3ccccc3O)CC2)cc1)N1CCOCC1", "note": "(configuration not stated)", "Potency": "active: 6.31 µM"}
{"smiles": "COc1ccc(S(=O)(=O)N2CCC(C(=O)Nc3ccc(Oc4ccccc4)cc3)CC2)cc1OC", "Potency": "active: 11.2 µM"}
{"smiles": "CCn1c(CSc2n[nH]c(N)n2)nc2cc(C(=O)O)ccc21", "Potency": "inactive"}
{"smiles": "CCOc1ccc(CNc2cccc(SC)c2)cc1", "Potency": "inactive"}
{"smiles": "COc1ccc(/C=N/Nc2nonc2N)c(OC)c1", "Potency": "active: 35.2 µM"}
{"smiles": "O=C(O)CC1NC(=S)N(c2ccccc2)C1=O", "note": "(configuration not stated)", "Potency": "inconclusive: 20 µM [inhibitor, partial curve]"}
{"smiles": "NC(=O)NNC1=Nc2cccc3cccc1c23", "Potency": "inconclusive: 22.4 µM [inhibitor, partial curve]"}
{"smiles": "COc1ccc(CCNc2nc(-c3sc(N)nc3C)cs2)cc1OC", "Potency": "inconclusive: 35.5 µM [inhibitor, single point]"}
{"smiles": "CCNc1ccc(S(=O)(=O)N(C)C)cc1NCC(=O)Nc1ccccc1F", "Potency": "inconclusive: 50.1 µM [inhibitor, single point]"}
{"smiles": "Cc1ccccc1NC(=O)c1cc(N)ccc1N1CCCCC1", "Potency": "inconclusive: 3.98 µM [inhibitor, full curve]"}
{"smiles": "Oc1ccc(/C=N/Nc2nc(-c3cccnc3)nc3ccccc23)c(O)c1", "Potency": "inconclusive: 28.2 µM [inhibitor, single point]"}
{"smiles": "CC(C)c1ccc(S(=O)(=O)Nc2cc3c(cc2NCc2ccccc2)n(C)c(=O)n3C)cc1", "Potency": "inconclusive: 39.8 µM [inhibitor, single point]"}
{"smiles": "CCN(CC)c1ccc(NC(=O)c2[nH]c(C)c(C(C)=O)c2C)c(C)c1", "Potency": "inconclusive: 19.8 µM [inhibitor, partial curve]"}
{"smiles": "COc1cc(-c2cn[nH]c2N)cc(OC)c1OC", "Potency": "active: 11.1 µM"}
{"smiles": "O=C(NNC(=O)c1cccs1)c1ccco1", "Potency": "inactive"}
{"smiles": "C/C(=N\\N(Cc1ccccc1)c1ccccc1)c1cccnc1", "Potency": "inconclusive: 39.8 µM [inhibitor, partial curve]"}
{"smiles": "Cc1ccc2[nH]c3nc(NN)nnc3c2c1", "Potency": "inconclusive: 35.5 µM [inhibitor, single point]"}
{"smiles": "O=C(Nc1nnc(SCc2ccc(F)cc2)s1)C1CC(=O)N(Cc2ccccc2)C1", "note": "(configuration not stated)", "Potency": "inactive"}
{"smiles": "Cc1nc2sc(C)c(C)n2c(=O)c1S(=O)(=O)NCCc1ccc(Cl)cc1", "Potency": "inconclusive: 31.6 µM [inhibitor, partial curve]"}
{"smiles": "Cc1ccc(S(=O)(=O)CCC(=O)Nc2cccc([N+](=O)[O-])c2)cc1", "Potency": "inconclusive: 3.55 µM [inhibitor, partial curve]"}
{"smiles": "CC(=O)Nc1ccc(S(=O)(=O)Nc2ccc(S(=O)(=O)N3CCCCCC3)cc2)cc1", "Potency": "inconclusive: 17.6 µM [inhibitor, partial curve]"}
{"smiles": "Cc1nc2ccc(NC(=S)NC3CC3)cc2nc1C", "Potency": "inactive"}
{"smiles": "Cc1nc(N)sc1-c1csc(N(C)c2ccc(O)cc2)n1", "Potency": "active: 25.1 µM"}
{"smiles": "CN(C1CCCCC1)S(=O)(=O)c1ccc(NC(=S)NC(=O)c2cccs2)cc1", "Potency": "inconclusive: 7.03 µM [inhibitor, full curve, poor fit]"}
{"smiles": "CN1CCN(CCCNC(=O)c2ccc3c(=O)n(CCc4ccccc4)c(=O)[nH]c3c2)CC1", "Potency": "inactive"}
{"smiles": "C/C(=C\\C(=S)Nc1ccccc1)Nc1cccc2ccccc12", "Potency": "inconclusive: 22.2 µM [inhibitor, single point]"}
{"smiles": "COc1cc(/C=N/Nc2cc(C)nc(NS(=O)(=O)c3ccc(C)cc3)n2)ccc1O", "Potency": "inconclusive: 17.6 µM [inhibitor, partial curve]"}
{"smiles": "CCOc1ccc(NC(=O)NC(CC)Cn2nnc3ccccc3c2=O)cc1", "note": "(configuration not stated)", "Potency": "inactive"}
{"smiles": "Cc1[nH]n(-c2ccccc2)c(=O)c1C(c1cccc([N+](=O)[O-])c1)c1c(C)[nH]n(-c2ccccc2)c1=O", "Potency": "inconclusive: 50.1 µM [inhibitor, single point]"}
{"smiles": "CC(NC(=O)c1ccccc1Cl)C1COc2ccccc2O1", "note": "(configuration not stated)", "Potency": "inconclusive: 100 µM [inhibitor, partial curve]"}
{"smiles": "COC(=O)CN1C(=O)C(O)(CC(=O)c2ccc(Br)cc2)c2ccccc21", "note": "(configuration not stated)", "Potency": "inconclusive: 100 µM [inhibitor, partial curve, poor fit]"}
{"smiles": "Cn1c(NCc2ccccc2F)nc2ccccc21", "Potency": "inconclusive: 7.94 µM [inhibitor, partial curve]"}
{"smiles": "COc1cc(/C=C2/C(=O)NN(c3ccc(F)cc3)C2=O)cc(Cl)c1O", "Potency": "inconclusive: 50.1 µM [inhibitor, single point]"}
{"smiles": "CCN(CC)c1ccc2c(c1)OC(N)=C(C#N)C2c1cccnc1", "note": "(configuration not stated)", "Potency": "inconclusive: 17.8 µM [inhibitor, partial curve]"}
{"smiles": "COc1ccccc1NC(=S)NNC(=O)c1ccc(O)cc1", "Potency": "inconclusive: 31.6 µM [inhibitor, partial curve]"}
{"smiles": "COc1ccccc1-c1nnc2n1N=C(c1ccc(O)c(O)c1)CS2", "Potency": "active: 11.2 µM"}
{"smiles": "CC(=O)Nc1ccc(S(=O)(=O)Nc2nc3ccccc3nc2Nc2ccc(O)cc2)cc1", "Potency": "active: 17.8 µM"}
{"smiles": "COc1ccc(S(=O)(=O)Nc2c(C(=O)O)[nH]c3ccc(OC)cc23)c(OC)c1", "Potency": "inconclusive: 11.2 µM [inhibitor, single point]"}
